Not every entry of the source has a single result; some have several. They are shown here; other results are not. There may be further records. The values listed for one entry seem to repeat one measurement on other runs, samples or individuals.

Consider 1 compound from article PMC3287010, “Pharmacokinetic Study of Di-Phenyl-Di-(2,4-Difluobenzohydroxamato)Tin(IV): Novel Metal-Based Complex with Promising Antitumor Potential” (Bioinorganic Chemistry and Applications, 2012).

This data set is described as follows: Pharmacokinetic study in rats after single intravenous administration (HPLC-UV plasma determination, two-compartment model, 3p97 software). The data set is classed as in vivo, Wistar albino rats. Set-up: unit not given here. The note with it: i.v., mean ± SD, n = 6. On the procedure:
Laboratory bred adult Wistar albino rats (200–250 g), which were supplied by the Animal Research Center at Shanxi Medical University (Taiyuan, Shanxi Province, China), were housed at 25 ± 2°C in a well-ventilated animal house under 12 : 12 h light dark cycle. The animals drank sterilized drinking water, and standard chow diet was supplied ad libitum to each cage. The animal experiments were performed in accordance with the ARVO Statement for the Use of Animals in Ophthalmic and Vision Research and were approved by the Animal Ethics Committee of Shanxi Medical University.
HPLC analysis was carried out using a Waters 2695 HPLC system (Waters Associates, Milford, MA) which consisted of a photodiode array detector, an autosampler, and a degasser. The apparatus was interfaced to a DELL PC compatible computer using Empower Pro software for data acquisition. The sensitivity was 0.2 AUFS. The autosampler was cooled to 10°C. The column was maintained at room temperature. Chromatographic separation of DPDFT and the I.S. was achieved on a Diamonsil C18 column (250 mm × 4.6 mm, 5 μm) from Dikma Technologies (Beijing, China) protected by a SHIMADZU LC guard column at 25°C. The mobile phase for HPLC analysis consisted of phosphoric acid in water (solvent A)/methanol (solvent B) (30 : 70, V/V, pH 3.0) with a flow rate of 0.8 mL·min^−1. A sample volume of 20 μL was injected. Prior to use, the mobile phase was filtered through a 0.45 μm hydrophilic membrane filter. The photodiode array detector was set at a wavelength of 228 nm at room temperature. […]
Blood samples collected from rat blood plasma were immediately transferred to 1.5 mL heparinized microcentrifuge tubes from fossa orbitalis of rats, and then processed for plasma by centrifugation. […] All harvested samples stored at −4°C were brought to room temperature before use and analyzed within one week. […]

Take `O=C(N[O][Sn]([O]NC(=O)c1ccc(F)cc1F)([c]1ccccc1)[c]1ccccc1)c1ccc(F)cc1F` [DPDFT, Di-phenyl-di-(2,4-difluobenzohydroxamato)tin(IV)]: the AUC is 7.56 ± 1.02 [table] and 7.56 [text] (7.5 mg·kg^−1 (low)); 37.15 ± 3.06 [table] and 37.15 [text] (15 mg·kg^−1 (middle)); 81.25 ± 15.3 [table] and 81.25 [text] (30 mg·kg^−1 (high)).
